# Laboratory results from article PMC4336329 (PLoS ONE, 2015).
# About 2,200 (0.71%) of roughly 310,000 compounds showed an effect of 50% or more. Effects have a minus sign here. The list shows a part of the results.
# Molecular target: human ether-à-go-go-related gene (hERG) potassium channel (human, UniProt Q12809)
# Experiment: primary screen, population patch clamp on CHO cells stably expressing hERG
# Chain of human ether-à-go-go-related gene (hERG) potassium channel (Q12809 whole entry, looked up): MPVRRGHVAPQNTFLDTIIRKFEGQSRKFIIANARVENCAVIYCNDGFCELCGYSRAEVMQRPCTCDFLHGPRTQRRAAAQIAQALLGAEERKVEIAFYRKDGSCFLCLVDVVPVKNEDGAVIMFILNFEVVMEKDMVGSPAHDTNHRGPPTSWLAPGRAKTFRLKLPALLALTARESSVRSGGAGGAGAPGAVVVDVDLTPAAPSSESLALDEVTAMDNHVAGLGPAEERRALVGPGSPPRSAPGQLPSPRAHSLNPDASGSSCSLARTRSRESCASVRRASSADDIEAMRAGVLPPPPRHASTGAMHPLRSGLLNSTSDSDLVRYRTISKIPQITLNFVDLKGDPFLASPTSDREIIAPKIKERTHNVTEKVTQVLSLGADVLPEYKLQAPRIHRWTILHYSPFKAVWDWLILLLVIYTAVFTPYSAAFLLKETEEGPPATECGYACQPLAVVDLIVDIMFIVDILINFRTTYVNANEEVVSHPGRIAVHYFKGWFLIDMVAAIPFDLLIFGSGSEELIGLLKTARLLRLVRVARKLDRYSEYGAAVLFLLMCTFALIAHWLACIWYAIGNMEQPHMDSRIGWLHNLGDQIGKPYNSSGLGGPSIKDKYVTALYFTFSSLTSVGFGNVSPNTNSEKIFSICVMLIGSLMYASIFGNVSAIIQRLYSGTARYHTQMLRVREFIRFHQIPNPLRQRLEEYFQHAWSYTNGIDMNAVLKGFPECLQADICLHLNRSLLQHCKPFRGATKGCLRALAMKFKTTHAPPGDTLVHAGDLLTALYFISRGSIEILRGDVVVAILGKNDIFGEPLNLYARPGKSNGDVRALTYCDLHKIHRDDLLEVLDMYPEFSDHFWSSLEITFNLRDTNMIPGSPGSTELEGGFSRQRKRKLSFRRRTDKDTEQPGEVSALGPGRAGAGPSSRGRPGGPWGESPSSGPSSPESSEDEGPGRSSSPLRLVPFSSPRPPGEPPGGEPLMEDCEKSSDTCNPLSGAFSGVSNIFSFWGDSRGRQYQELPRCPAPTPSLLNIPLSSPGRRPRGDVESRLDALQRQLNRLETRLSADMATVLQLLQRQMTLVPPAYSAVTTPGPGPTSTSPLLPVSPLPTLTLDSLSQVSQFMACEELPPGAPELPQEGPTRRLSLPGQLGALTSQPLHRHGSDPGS
row,Compound,"hERG current change (%, negative = inhibition) at 1uM"
1,Cc1ccc(C(=O)CN(CCCC(N)=O)S(=O)(=O)c2ccc([N+](=O)[O-])cc2)cc1,-34%
2,COC(=O)c1ccccc1NC(=O)Cn1c(=O)n(Cc2ccccc2)c(=O)c2c(C)c(C)sc21,6.63%
3,CC12CC3CC(C)(C1)CC(C(O)CN1CCOCC1)(C3)C2.Cl (stereo not drawn),14.9%
4,CN(C)CCn1c(C(=O)O)cc2ccccc21.Cl,11.7%
5,CN1/C(=C/C(=S)NC(=O)C2CCC2)C(C)(C)c2ccccc21,9.57%
6,Cc1ccc(Nc2nc(C(=O)NCCCN3CCOCC3)cs2)cc1,-11.9%
7,O=C(NC1CCCc2c1cnn2-c1ccc(F)cc1F)c1csnn1 (stereo not drawn),12.5%
8,CC(NC(=O)/C=C/c1ccc(Br)cc1)c1ccc(Cl)cc1 (stereo not drawn),5.45%
9,CCCCn1nnnc1SCC(=O)c1cc(Cl)ccc1OC,-1.89%
10,Cc1ccc(S(=O)(=O)CC(O)COc2ccc(F)cc2Cl)c(C)c1 (stereo not drawn),7.06%
11,CCCCSc1nc2sc3c(c2c(=O)[nH]1)CC(C)(CC)OC3 (stereo not drawn),19.7%
12,CCCCNc1ccc(S(N)(=O)=O)cc1[N+](=O)[O-],9.61%
13,Cc1cccc(OCC(=O)O/N=C(\N)c2ccccn2)c1C,3.96%
14,Cc1ccc(SCC(=O)Nc2ccc3c(c2)C(=O)NC3=O)cc1,11.8%
15,CC/C(=N\Nc1ccc([N+](=O)[O-])cc1[N+](=O)[O-])c1ccc(O)cc1,20.6%
16,Cn1cc(C(=O)c2ccc(Cl)cc2Cl)cc1C(=O)N/N=C(\N)COc1ccc(F)cc1,9.81%
17,COc1ccc(-c2nc(-c3ccc4c(c3)OCO4)[nH]c2-c2ccc(OC)cc2)cc1,14.7%
18,CCCN1C(=O)c2cc(C(=O)Nc3cccc(C(C)=O)c3)ccc2C1Nc1cccc(C(C)=O)c1 (stereo not drawn),7.41%
19,c1ccc(CCNc2ncnc3sccc23)nc1,21.7%
20,O=C(O)c1ccc(/C=C/c2nc3ccccc3c(=O)[nH]2)cc1,15.1%
21,COc1ccc(NC(=S)NC(NC(=O)c2ccccc2Cl)C(Cl)(Cl)Cl)c([N+](=O)[O-])c1 (stereo not drawn),12.5%
22,CC(=O)c1c(C)[nH]c(C(=O)Nc2nc(-c3ccc(Cl)cc3)cs2)c1C,17.1%
23,Cc1ccccc1-c1cc(C(=O)NCC2CC2)nn1CC1CC(c2cccc([N+](=O)[O-])c2)=NO1 (stereo not drawn),11.8%
24,Nn1cnnc1N/N=C/c1cc([N+](=O)[O-])c(Cl)cc1Cl,-3.12%
25,Cc1cccnc1NC(=O)c1ccc(C(=O)c2ccccc2)cc1,6.21%
26,CCOc1cc(CNc2ccccc2)cc(Br)c1OCC(=O)NC(C)(C)C,14%
27,O=C(CN1CCCCCC1)N/N=C/c1ccc2ccccc2c1,-10.5%

row,Compound,"hERG current change (%, negative = inhibition) at 1uM"
1,CCCCc1ccc(NC(=S)N2CCCC2)cc1,11.3%
2,O=C(NCc1ccco1)/C(=C/c1cccc([N+](=O)[O-])c1)NC(=O)c1ccco1,-15.4%
3,COc1ccc(C(C)=O)c(Oc2cc(NN3CCCCC3)c([N+](=O)[O-])cc2[N+](=O)[O-])c1,12.7%
4,COc1ccc(S(=O)(=O)N2CCCOC2CNC(=O)C(=O)NCc2ccco2)cc1C (stereo not drawn),3.62%
5,COc1ccc(NC(C)=O)cc1NC(C)C(=O)Nc1ccc(F)c(F)c1F (stereo not drawn),-0.302%
6,COc1ccccc1NC(=O)c1ccccc1S(=O)(=O)c1ccccc1[N+](=O)[O-],17.4%
7,CCCN(CCC)C(=O)Cn1c(=O)n(CCC(=O)NCCc2ccccc2)c(=O)c2ccccc21,-7.65%
8,Cc1cc(C)n(-c2n[nH]c(C)c2[N+](=O)[O-])n1,3.56%
9,Cc1ccc(OCC(=O)NCCc2c[nH]c3ccccc23)cc1,9.53%
10,O=C(Nc1ccc(N2CCOCC2)cc1)c1ccccc1SCC(=O)N1CCCC1,10.9%
11,O=S(=O)(c1ccccc1)N1CCN(C2CCCCCCC2)CC1,-7.17%
12,COc1ccc(OC)c(NC(=O)CSc2nnnn2-c2ccc3c(c2)OCO3)c1,-1.68%
13,O=C(NCC1COc2ccccc2O1)c1ccc(NC(=O)c2ccco2)cc1 (stereo not drawn),-1.42%
14,Cc1ccc(-c2nn(-c3ccccc3)cc2C(=O)N2CCOCC2)cc1,9.79%
15,Cc1cc(C)c(NC(=S)NC(=O)c2ccc(-c3ccccc3)cc2)c(C)c1,15.3%
16,Cn1c(-[n+]2c(-c3ccccc3)cc(-c3ccccc3)cc2-c2ccccc2)nc2c([N+](=O)[O-])cccc21.[I-],-6.1%
17,O=C(/C=C/c1cccc([N+](=O)[O-])c1)Nc1cccc(NC(=O)c2ccco2)c1,6.17%
18,COc1cc(C(=O)n2nc(C)cc2C)cc(OC)c1OC,16.5%
19,COc1ccc(-n2nnnc2SCC(=O)NC2CCCC2)cc1OC,15.2%
20,CCCC(=O)Nc1c(C(=O)OCC)oc2ccccc12,10.2%
21,CCN(CCCNC(=O)CC(C(=O)N1CCc2ccccc21)n1ccnc1)c1cccc(C)c1 (stereo not drawn),-37.4%
22,CCN(c1ccccc1)S(=O)(=O)c1ccc(OC)c(NS(=O)(=O)c2cccs2)c1,10.2%
23,CC(C)(C)CC(C)(C)NC(=O)CSCC(=O)Nc1ccc2ccccc2c1,1.88%
24,COC(=O)c1ccc(S(=O)(=O)N2CCCCCC2)n1C,15.3%
25,Cc1ccc2c(CC(=O)NNC(=O)c3ccncc3)coc2c1,7.99%
26,COc1ccc(S(=O)(=O)N2CCOC2CNC(=O)C(=O)NCCc2ccccc2OC)cc1 (stereo not drawn),9.54%
27,CCCCn1c(SCC(=O)N(CC)C2CCS(=O)(=O)C2)nnc1C(CC)N(C)C (stereo not drawn),11.7%
